± gives the uncertainty stated by the source. This is one part of the list. Phosphotyrosine is written y.
target: GRB2 (endogenous complexes from cell lysate), P62993; experiment: GRB2 complex binding differential signal (pY peptide minus Ala control peptide) (fluorescence intensity units); higher = stronger GRB2 complex binding; conditions: MCF7
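Also: phosphopeptide probes on the chip at 1–4 µM, lysate proteins bound in 20 mM Tris pH 7.0 buffer with 140 mM NaCl, 1% Triton X-100 and 5% glycerol.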

Binder	GRB2 complex binding differential signal
yKGHLF [ROR2_488/A1]	971 ± 400
yDKLNV [ROR2_624/A1]	1560 ± 270
yYKLLG [ROR2_645/A1]	247 ± 280
yDTPPM [BCAR1_267/A1]	3400 ± 970
yKLLGN [ROR2_646/A1]	2980 ± 390
yGKFSI [ROR2_666/A1]	996 ± 210
yVTTAP [ROR2_873/A1]	4970 ± 1600
yYRKRG [ROS1_2114/A1]	156 ± 180
yMVLAT [ROS1_2274/A1]	655 ± 260
yACLTH [ROS1_2334/A1]	717 ± 250
yLARRE [RYK_452/A1]	1040 ± 590
yHCLGD [RYK_492/A1]	42.9 ± 300
yRIAQP [RYK_556/A1]	6520 ± 3800
ySPIIK [SH22A_216/A1]	3630 ± 560
yDVPPS [BCAR1_287/A1]	2280 ± 390
yNEPDE [SH22A_280/A1]	1740 ± 990
yAMGRG [SH22A_290/A1]	1350 ± 1100

same assay, conditions: MCF10A

Binder	GRB2 complex binding differential signal
yKGHLF [ROR2_488/A1]	223 ± 310
yDKLNV [ROR2_624/A1]	1720 ± 320
yYKLLG [ROR2_645/A1]	146 ± 220
yDTPPM [BCAR1_267/A1]	1910 ± 600
yKLLGN [ROR2_646/A1]	1480 ± 530
yGKFSI [ROR2_666/A1]	193 ± 490
yVTTAP [ROR2_873/A1]	5130 ± 830
yYRKRG [ROS1_2114/A1]	48.1 ± 150
yMVLAT [ROS1_2274/A1]	472 ± 230
yACLTH [ROS1_2334/A1]	280 ± 810
yLARRE [RYK_452/A1]	1570 ± 560
yHCLGD [RYK_492/A1]	59.9 ± 130
yRIAQP [RYK_556/A1]	5130 ± 1000
ySPIIK [SH22A_216/A1]	2500 ± 330
yDVPPS [BCAR1_287/A1]	404 ± 580
yNEPDE [SH22A_280/A1]	1830 ± 410
yAMGRG [SH22A_290/A1]	737 ± 380

same assay, conditions: MDA-MB-231

Binder	GRB2 complex binding differential signal
yKGHLF [ROR2_488/A1]	468 ± 300
yDKLNV [ROR2_624/A1]	465 ± 370
yYKLLG [ROR2_645/A1]	874 ± 400
yDTPPM [BCAR1_267/A1]	2140 ± 490
yKLLGN [ROR2_646/A1]	1010 ± 330
yGKFSI [ROR2_666/A1]	100 ± 300
yVTTAP [ROR2_873/A1]	1820 ± 450
yYRKRG [ROS1_2114/A1]	425 ± 300
yMVLAT [ROS1_2274/A1]	927 ± 500
yACLTH [ROS1_2334/A1]	1120 ± 310
yLARRE [RYK_452/A1]	638 ± 330
yHCLGD [RYK_492/A1]	473 ± 350
yRIAQP [RYK_556/A1]	1390 ± 1400
ySPIIK [SH22A_216/A1]	1760 ± 330
yDVPPS [BCAR1_287/A1]	1300 ± 400
yNEPDE [SH22A_280/A1]	742 ± 420
yAMGRG [SH22A_290/A1]	294 ± 350

same assay, conditions: T47D

Binder	GRB2 complex binding differential signal
yKGHLF [ROR2_488/A1]	379 ± 1100
yDKLNV [ROR2_624/A1]	793 ± 1200
yYKLLG [ROR2_645/A1]	877 ± 950
yDTPPM [BCAR1_267/A1]	1670 ± 1100
yKLLGN [ROR2_646/A1]	1940 ± 820
yGKFSI [ROR2_666/A1]	582 ± 850
yVTTAP [ROR2_873/A1]	2310 ± 1300
yYRKRG [ROS1_2114/A1]	97.1 ± 650
yMVLAT [ROS1_2274/A1]	237 ± 790
yACLTH [ROS1_2334/A1]	4770 ± 1600
yLARRE [RYK_452/A1]	329 ± 850
yHCLGD [RYK_492/A1]	68.4 ± 960
yRIAQP [RYK_556/A1]	1070 ± 1000
ySPIIK [SH22A_216/A1]	1200 ± 1700
yDVPPS [BCAR1_287/A1]	843 ± 970
yNEPDE [SH22A_280/A1]	3.65 ± 960
yAMGRG [SH22A_290/A1]	71.6 ± 990
